From the supplement of paper PMC3334620
In all, about 33,000 sequences were measured (“E-score (-0.5 to 0.5)”: median about -0.04, highest 2% from about 0.36 on). The list shows a part of the results.

Target: T1, Hmlalpha2 (UniProt P0CY09)
T1 sequence: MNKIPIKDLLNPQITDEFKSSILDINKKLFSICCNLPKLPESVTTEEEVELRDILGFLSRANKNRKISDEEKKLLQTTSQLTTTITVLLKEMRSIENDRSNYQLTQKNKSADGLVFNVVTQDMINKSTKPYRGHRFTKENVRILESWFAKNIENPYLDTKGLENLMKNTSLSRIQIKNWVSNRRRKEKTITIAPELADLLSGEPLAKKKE
Assay: PBM E-score (8-mer binding enrichment) (E-score (-0.5 to 0.5)); higher = stronger / more preferred TF binding; most listed sequences are background and not binding sites
Conditions: protein concentration: 200 nM; construct: GST-full length
How it was run: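 Full-length yeast transcription factors or their DNA-binding domains, GST-tagged and expressed with PURExpress, were applied at about 100-200 nM to universal all-10-mer Agilent arrays. These arrays had been made double-stranded by primer extension on fresh or once-stripped slides. Detection used fluorescent anti-GST, normalisation used masliner, and E-scores for ungapped eight-base words pooled with reverse complements came from the Universal PBM Analysis Suite.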

Sequence	PBM E-score
GGGCCTAC	-0.191
ATGTCCCG	-0.275
GCACCACC	-0.282
CCTACAAA	0.0287
GCCGTAGC	-0.102
CGTCAGAG	0.0339
AAACGCTA	-0.017
GACGACAA	0.104
GTGTTACA	0.354
AGGCGATA	-0.203
AGCCGCCA	-0.246
TCACGGAA	-0.0341
AAGCATCC	-0.3
CGGGCTCA	-0.254
CTATTAAG	-0.156
CGGAGACC	-0.101
CTGACAGA	-0.1
AACCACAC	0.165
TATCAATA	0.115
AGTAAAAT	0.16
ATTGGAAA	-0.094
GCCTAACA	0.127
GTACCTTA	0.106
CAATGCAA	0.123
ATGATACC	0.0611

Sequence	PBM E-score
AACGCTGC	0.029
AAGTGAAC	0.00784
AGGGAGAT	-0.303
CAAATGTG	0.26
ACAAAAGC	0.139
GTGCTCCA	-0.114
GCACACAA	0.155
AAGTGTCA	-0.117
GCTCGTAA	0.198
ACTCGGCA	-0.0129
GCCACTAA	-0.24
AATCCAAG	-0.128
TACCTATA	-0.0141
TCCGGACA	-0.165
AAGTAAAA	0.121
CGCCGCCA	-0.183
CCGTACCC	-0.203
AAAACCTA	0.156
GTTTAATA	0.218
ACTGACTA	0.0439
AAGCCGAA	0.00646
ACCTCTAT	-0.118
GATCGCGA	-0.102
TACGGAGA	0.0295
CTGTACAA	0.288

Sequence	PBM E-score
TGACGAAA	0.116
CCGGTAAG	-0.0586
TAACGCGA	0.353
GCGCTCTA	-0.169
GGTTTCGA	-0.204
ATGGGGAG	-0.141
TATCTAAA	0.141
AGATTGTA	0.159
AAAAAGCC	-0.0506
GCCACAGC	-0.0844
TACACGGA	0.447
ATCTGTAG	-0.0319
AACTCAAA	0.202
AAGCGACG	-0.112
CAGGGCAC	-0.126
GCAGTACC	0.0301
AGTAATAG	0.248
CTCGACTA	-0.0679
CGATGGCC	-0.21
AGGGGCCA	-0.278
CGTAAGCC	-0.0631
GTAGGTGA	0.116
TCAGATGA	0.00478
CCCACTAG	-0.3
GTGAGCTA	0.121

Sequence	PBM E-score
AAAACGTC	0.148
CACATCGC	-0.0469
AGGCCCGC	-0.162
AAAGCCAC	-0.129
TATGTACA	0.429
GATAGTAA	0.0606
GTCAAAAC	0.173
ACTGCCTC	-0.0994
CAAGACCG	-0.0879
CTCTGAAG	-0.259
CATGAGAC	0.0704
ATCATCCA	-0.233
AACCGTCT	-0.164
TGGCCTAA	-0.0483
TGCATCAA	0.0377
GGCGCATA	-0.0781
ATATAAAG	-0.0907
TGACTGCA	-0.12
CTGGAGAC	-0.191
AAAAATTG	0.0425
AAAGGACG	0.052
TGGCATAA	0.158
CGACATAG	0.139
CGTACGCA	0.106
TCCTGCAA	-0.15

Sequence	PBM E-score
GGGGCGAC	-0.221
AACCATTC	-0.123
ACATCGCC	0.0613
CGTTCTTA	0.148
CAATGCCA	-0.0809
AGTTTTAT	0.163
CCGAAGTA	0.0976
CGCCATAC	-0.036
TAGAAGAA	0.00123
AATCAACT	0.232
CAAATAAC	0.279
ATCGCAGC	-0.13
GCTGTAAA	0.336
AAACGGGG	-0.0854
ATACACAA	0.42
AGGCTCCG	-0.228
CCGGCAGC	-0.36
CTACGCAG	0.228
CGTCTGGC	-0.0586
AGGTACAG	-0.014
AAGAACTA	0.142
AGTGGCTC	-0.191
CATCTGTA	0.0908
CACCAACA	0.0464
GATATTGA	-0.135

Sequence	PBM E-score
TCGAGTCA	-0.0925
TAGAAACA	0.205
GAATTTAA	0.0915
GTCGCCAA	-0.173
TCACAACA	0.324
CCACTCAA	0.1
CCGCCTGC	-0.227
ATATGACA	0.18
CTACCACA	-0.0802
ATGTTGGG	0.159
CATGGCGA	0.00745
AGGAAGGA	-0.126
AACTGAAC	-0.221
CGGGTTCC	-0.0966
TACAGCAA	0.151
AACCCTTA	0.176
CCAGCTGA	-0.0503
CATAAAAC	0.121
GGGGGAGA	-0.351
AGCCGCGG	-0.196
AGGACGGC	-0.0368
ATTCGACA	0.218
ACACCTTC	0.00154
GCTAGGCA	-0.23
CTCGTCAG	-0.0334

Sequence	PBM E-score
CCGCTCTC	-0.296
ACATGCCA	0.397
ATCCCTGC	-0.119
AATAATTC	0.197
AGGACTAC	-0.172
AAATTAGG	-0.021
ACCCAGAA	0.138
GCCTCTGA	-0.251
CAGGCACC	-0.143
ATTTAGGA	0.0554
AAGAGTCC	-0.297
ATAATGAA	0.167
CGCCTTGC	-0.0769
TGACGTAA	0.288
AGGATTTG	0.0442
ATAGCAGG	-0.0449
AACTCAGG	0.0157
CGCTGTAG	-0.00579
CGTCTTAG	-0.106
AGGAGATA	-0.12
GGGCCGTA	-0.168
CGGTCCCC	-0.347
